By % Inhibition is commonly meant the change of the read-out against control, counted positive when it falls.

The campaign covered roughly 150,000 compounds. About 540 (0.36%) showed an effect of 50% or more. The list shows a part of the results.

This experiment relates to Plasmodium falciparum. The experiment can be described thus: Primary screen in NF54 nanoGlo assay, in single point, at 2uM, 72h; a lower Z score goes with more inhibition. In kind it is functional, Erythrocyte. As to conditions: timepoint 72 hour.
`CC(C(=O)NC1(C#N)CCCCC1)N1CCOC(c2nccs2)C1` (stereo unspecified): the “% Inhibition” value was -5% and the Z score is 0.48.

Turning to `CCCCOc1ccc(-c2cc3c4nn(CC(=O)N(CC)c5ccccc5)c(=O)n4ccn3n2)cc1`, the “% Inhibition” value is -14% and the Z score is reported as 1.96.

`CC(NC1CCN(C(C)C)C1=O)c1ccc(F)cc1N(C)C` (stereo unspecified): the “% Inhibition” value is -10% and the Z score was determined as 1.34.

`Cc1cncc(NC(=O)N(C)C[C@H]2CCCCO2)c1`: the “% Inhibition” value is listed as -4% and the Z score came out at 0.74.

In the case of `CN(C[C@H](O)C(F)(F)F)C(=O)Nc1cc(F)ccc1OC(F)F`, the “% Inhibition” value is listed as -7% and the Z score came out at 1.1.

As to `COc1ccc(C(=O)Nc2cccc(C(=O)c3cccc(C)c3C)c2)cc1`, the “% Inhibition” value is -5% and the Z score is on record as 0.58.

On to `O=C(c1cc(-c2cn[nH]c2)nc2ccccc12)N1CCN(c2ncccn2)CC1`, for which the “% Inhibition” value is listed as -5% and the Z score came out at 0.65.

For the molecule `c1ccc(CNc2ncnc3c2CCC3)nc1`, the “% Inhibition” value was -19% and the Z score is given as 2.37.

Turning to `O=C(NCc1ccccn1)[C@H]1CCCN(c2cc3c(nn2)CCC3)C1`, the “% Inhibition” value is reported as -11% and the Z score is reported as 2.11.

Turning to `CC[C@H](C)[C@@H]1NC(=O)N(CCCc2cc3c(OC)cc(OC)cc3[nH]2)C1=O`, the “% Inhibition” value is reported as -7% and the Z score is on record as 0.85.

With `O=C(Nc1ccc(C(F)(F)F)cc1)N1CCN(CC(O)C2CCCO2)CC1` (stereo unspecified), the “% Inhibition” value worked out at 33% and the Z score is on record as -0.67.

With `Nc1ncc(C(=O)N2CCN(CC3CCC3)CC2)s1`, the “% Inhibition” value is recorded as 1% and the Z score is reported as -0.19.

Regarding `CCC(CC)[C@H](NC(C)=O)c1cccs1`, the “% Inhibition” value stood at 3% and the Z score is recorded as -0.41.

On to `CCCN(CCc1cccc(F)c1)C(=O)Cn1ccc(=O)n(C)c1=O`, for which the “% Inhibition” value is recorded as -11% and the Z score came to 1.03.

Consider `O=C1CN(C(=O)c2ccc(Cl)cc2O)C2CCCCC2N1` (stereo unspecified), for which the “% Inhibition” value is reported as -8% and the Z score is 1.49.

As for `O=S(=O)(c1ccc(Br)c(-c2nc3ccccc3o2)c1)N1CCCCC1`, the “% Inhibition” value is given as 29% and the Z score is -3.32.

`CCn1ccc2cc(CN3CCN(CC4CC4)[C@@H](CCO)C3)ccc21`: the “% Inhibition” value is listed as -15% and the Z score stood at 2.94.

As for `Cc1nc(C(C)(C)NCC(=O)N[C@](C)(C#N)C2CC2)sc1C`, the “% Inhibition” value is -3% and the Z score stood at 0.27.

For `CN1CCN(S(=O)(=O)c2ccc3c(c2)CCCC3=O)c2ccccc2C1`, the “% Inhibition” value is on record as -7% and the Z score is recorded as 0.92.

As for `C[C@H](NCC1(c2ccc3c(c2)OCO3)CCCCC1)C(N)=O`, the “% Inhibition” value is -12% and the Z score is listed as 1.85.

Regarding `Cc1nnnn1CCC(=O)NCc1cc(COc2ccccc2)cs1`, the “% Inhibition” value is on record as -12% and the Z score was 2.04.

For the molecule `COC(=O)c1cnc(NC2CCCCCN(C(=O)C3CCC3(F)F)C2)nc1` (stereo unspecified), the “% Inhibition” value came out at 7% and the Z score is listed as -0.92.

In the case of `CC1CCCCC1(NC(=O)OC(C)(C)C)C(=O)NC1CCCC1` (stereo unspecified), the “% Inhibition” value is listed as -7% and the Z score worked out at 0.91.

Take `CCc1ccc(CN2C(=O)N[C@@H](C(C)(C)C)C2=O)s1`: the “% Inhibition” value is given as -2% and the Z score is on record as 0.26.

For `COC(C)(C)c1nc(C)c(C(=O)NCc2ccc(C)n(C)c2=O)s1`, the “% Inhibition” value is recorded as -11% and the Z score amounted to 1.72.

As to `Cc1cc(C)c(OC(=O)c2ccc(Cl)cc2Cl)c(CNC(=O)c2ccccc2)c1`, the “% Inhibition” value was 40% and the Z score is -5.11.

Regarding `Cc1cc(NC(=O)N2Cc3ccccc3CO2)nn1C(C)C`, the “% Inhibition” value is recorded as 0% and the Z score worked out at 0.06.

`CCN1CN(C(=O)C2(CF)CCC2)CC1=O`: the “% Inhibition” value is recorded as -11% and the Z score amounted to 1.32.

For `CC(C)(C)c1coc(CNC(=O)Cc2cn3cc(F)ccc3n2)n1`, the “% Inhibition” value is reported as -4% and the Z score amounted to 0.6.

For the molecule `COC(=O)c1cc(F)c(C)c(NCC(=O)NCC(F)(F)F)c1`, the “% Inhibition” value came out at 6% and the Z score is -1.18.

As for `CCc1noc(CN(c2ccc(C#N)cc2)S(C)(=O)=O)n1`, the “% Inhibition” value is reported as -5% and the Z score was found to be 0.56.

As for `O=C(NC1CCCc2ccccc21)C1CC(O)CN1` (stereo unspecified), the “% Inhibition” value is -10% and the Z score is 1.24.

Take `Cc1noc(C)c1C(=O)N1CCCCC[C@H]1c1cc(-c2ccc(F)cc2)on1`: the “% Inhibition” value was -7% and the Z score worked out at 0.75.

Regarding `CCN(CC)C(=O)c1ccc(-c2ccc(N)cn2)cc1`, the “% Inhibition” value was -27% and the Z score turned out to be 3.89.

As for `CCN1CCC(NC(=O)c2ccc3cccnc3c2)(C(F)(F)F)CC1`, the “% Inhibition” value turned out to be 3% and the Z score was -0.41.

Regarding `CCCc1noc(Cn2ccc3ccn(Cc4cccnc4)c3c2=O)n1`, the “% Inhibition” value is -11% and the Z score stood at 0.96.

As for `Cc1c[nH]nc1CN1CCOc2ccc(Br)cc2C1`, the “% Inhibition” value was -2% and the Z score is 0.25.

In the case of `CC(C)(O)Cn1nc(-c2ccc(F)cc2)nc1[C@@H]1CCC(=O)N1`, the “% Inhibition” value is -11% and the Z score worked out at 1.43.

With `O=S1(=O)CCC(O)(CNC2CCCc3c(Cl)sc(Cl)c32)C1` (stereo unspecified), the “% Inhibition” value is on record as -15% and the Z score amounted to 2.06.

In the case of `O=C(CCN1C(=O)CCC1=O)Nc1nc2cc(F)c(F)cc2s1`, the “% Inhibition” value is reported as -17% and the Z score came out at 2.6.

With `CC1CN(Cc2ccccn2)CCC1Nc1ncccc1C#N` (stereo unspecified), the “% Inhibition” value is -7% and the Z score came to 0.95.

On to `Cc1nccn1CCC(=O)NCc1cccc2[nH]ccc12`, for which the “% Inhibition” value was -3% and the Z score is 0.48.

With `CCOC(=O)CCNC(=O)N1CCC(F)(C(=O)NCc2ccncc2)CC1`, the “% Inhibition” value is reported as -6% and the Z score turned out to be 0.76.
